The campaign covered roughly 310,000 compounds. About 2,200 (0.71%) showed an effect of 50% or more. Effects have a minus sign here. The list shows a part of the results.
Each compound was assayed against human ether-à-go-go-related gene (hERG) potassium channel (human, UniProt Q12809) (assay: primary screen, population patch clamp on CHO cells stably expressing hERG).
human ether-à-go-go-related gene (hERG) potassium channel, sequence (Q12809 whole entry, looked up): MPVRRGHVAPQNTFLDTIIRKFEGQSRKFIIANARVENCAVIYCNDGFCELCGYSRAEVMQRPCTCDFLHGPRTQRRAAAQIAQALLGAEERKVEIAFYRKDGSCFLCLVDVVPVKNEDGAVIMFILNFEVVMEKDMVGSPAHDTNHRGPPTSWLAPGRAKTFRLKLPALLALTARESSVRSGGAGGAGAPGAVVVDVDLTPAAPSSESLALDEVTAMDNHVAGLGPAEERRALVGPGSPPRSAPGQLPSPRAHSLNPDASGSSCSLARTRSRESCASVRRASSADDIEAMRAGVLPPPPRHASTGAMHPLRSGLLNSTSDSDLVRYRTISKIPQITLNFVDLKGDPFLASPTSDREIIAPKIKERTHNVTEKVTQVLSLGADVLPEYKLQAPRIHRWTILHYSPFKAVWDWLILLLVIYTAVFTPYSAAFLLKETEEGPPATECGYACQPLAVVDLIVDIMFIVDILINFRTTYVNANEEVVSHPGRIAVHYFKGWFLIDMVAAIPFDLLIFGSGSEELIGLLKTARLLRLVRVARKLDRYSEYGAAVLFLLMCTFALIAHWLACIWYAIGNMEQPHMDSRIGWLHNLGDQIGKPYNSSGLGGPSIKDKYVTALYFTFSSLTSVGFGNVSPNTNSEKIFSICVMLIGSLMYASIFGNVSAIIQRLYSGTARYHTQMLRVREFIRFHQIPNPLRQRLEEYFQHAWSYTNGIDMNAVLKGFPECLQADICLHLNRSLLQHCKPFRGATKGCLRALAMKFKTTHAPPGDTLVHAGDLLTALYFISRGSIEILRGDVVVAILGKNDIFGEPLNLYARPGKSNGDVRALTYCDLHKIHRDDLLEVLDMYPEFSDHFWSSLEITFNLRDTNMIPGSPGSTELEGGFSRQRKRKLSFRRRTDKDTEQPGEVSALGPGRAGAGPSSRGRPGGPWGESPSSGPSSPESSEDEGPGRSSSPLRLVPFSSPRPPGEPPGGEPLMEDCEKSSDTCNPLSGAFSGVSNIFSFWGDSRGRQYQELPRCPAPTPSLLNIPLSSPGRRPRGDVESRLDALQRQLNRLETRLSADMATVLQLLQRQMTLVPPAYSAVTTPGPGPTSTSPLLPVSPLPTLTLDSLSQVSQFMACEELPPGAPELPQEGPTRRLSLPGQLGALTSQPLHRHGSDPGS
In the case of `CCn1nc(NC(=O)c2ccncc2)c2cc3ccc(C)cc3nc21`, the “hERG current change (%, negative = inhibition) at 1uM” value is reported as -0.872%. With `COc1ccc(NC(=O)CN(C)C(=O)c2sc3cc(Cl)ccc3c2Cl)cc1` the “hERG current change (%, negative = inhibition) at 1uM” value was -0.358%. With `COc1ccc(CN2C(=O)c3cccnc3C2=O)cc1S(=O)(=O)NCc1ccco1` the “hERG current change (%, negative = inhibition) at 1uM” value was 18%. `CC1CCc2cc(F)ccc2N1C(=O)CN1C(=O)c2ccccc2C1=O` (centres unmarked) was tested, and the “hERG current change (%, negative = inhibition) at 1uM” value was 7.18%. `O=c1oc2ccc3ccccc3c2cc1-c1nnc(-c2ccccc2)o1` was tested, and the “hERG current change (%, negative = inhibition) at 1uM” value was 10.5%. For `Cc1c(C(=O)Nc2ccc(C(=O)O)cc2)cnn1C`, the “hERG current change (%, negative = inhibition) at 1uM” value was 16.1%. With `Cc1ccc2c(c1)c1ncnc(N3CCc4ccccc4C3)c1n2C` the “hERG current change (%, negative = inhibition) at 1uM” value was 6.72%. `COc1ccccc1CNCC(O)(c1ccc(Cl)cc1)c1ccc(Cl)cc1` was tested, and the “hERG current change (%, negative = inhibition) at 1uM” value was 6.37%. `Cc1[nH]c(=O)[nH]c(=O)c1S(=O)(=O)N1CCCC(C(=O)NCc2ccc3c(c2)OCO3)C1` (centres unmarked) was tested, and the “hERG current change (%, negative = inhibition) at 1uM” value was 15.1%. `Cc1ccc(N=C2C(=O)Nc3ccccc32)cc1C` was tested, and the “hERG current change (%, negative = inhibition) at 1uM” value was 13.4%. For `CN1C(=O)C(=Cc2ccccc2OCc2ccccc2Cl)C(=O)N(C)C1=O`, the “hERG current change (%, negative = inhibition) at 1uM” value was 14.9%. For `Cc1ccccc1NC(=O)NCCCN1CCCC1=O`, the “hERG current change (%, negative = inhibition) at 1uM” value was 13%. With `CCn1c(O)c(C=NCCN2CCOCC2)c(=O)n(CC)c1=S` the “hERG current change (%, negative = inhibition) at 1uM” value was 6.82%. With `COC(=O)c1ccc(C2=NOC(C)(c3nnc(-c4cccc(Cl)c4)o3)C2)cc1` (centres unmarked) the “hERG current change (%, negative = inhibition) at 1uM” value was 11.7%. With `O=C(c1ccc2c(c1)N(Cc1cccc(Cl)c1)C(=O)c1ccccc1S2(=O)=O)N1CCN(c2ccccn2)CC1` the “hERG current change (%, negative = inhibition) at 1uM” value was 12.7%. With `COc1ccc(OC)c(C2C3=C(CCCC3=O)Nc3nnnn32)c1` (centres unmarked) the “hERG current change (%, negative = inhibition) at 1uM” value was 5.45%. In the case of `Clc1ccc(-c2csc(Nc3cccnc3)n2)cc1`, the “hERG current change (%, negative = inhibition) at 1uM” value is reported as 13.4%. For `CCN(CC)c1ccc(NC(=O)c2ccc(Br)o2)cc1`, the “hERG current change (%, negative = inhibition) at 1uM” value was 0.994%. `CCc1cc(C(=O)N/N=C/c2c(C)[nH]c3ccccc23)cs1` was tested, and the “hERG current change (%, negative = inhibition) at 1uM” value was 6.63%. For `COC(=O)c1ccc(NC(=O)CSc2nccn2CCc2ccccc2)cc1`, the “hERG current change (%, negative = inhibition) at 1uM” value was 18.3%. In the case of `COc1ccc(C2NC(=O)N(C)C3=C2C(=O)CC(C)(C)C3)cc1OC` (centres unmarked), the “hERG current change (%, negative = inhibition) at 1uM” value is reported as 9.95%. For `Cc1cc(=S)[nH]c2ccccc12`, the “hERG current change (%, negative = inhibition) at 1uM” value was 14.4%. For `CC(C)Sc1nnc([C@H](Cc2c[nH]c3ccccc23)NC(=O)OC(C)(C)C)o1`, the “hERG current change (%, negative = inhibition) at 1uM” value was 0.773%. For `COc1ccc(NC(=S)N(Cc2ccc(Cl)cc2)Cc2ccc(C(=O)O)cc2)cc1Cl`, the “hERG current change (%, negative = inhibition) at 1uM” value was 1.05%. For `CN1CCN(S(=O)(=O)c2ccc(Cl)cc2)CC1`, the “hERG current change (%, negative = inhibition) at 1uM” value was 10.3%. In the case of `CN(C)C(CNC(=O)CCOc1ccccc1)c1ccco1` (centres unmarked), the “hERG current change (%, negative = inhibition) at 1uM” value is reported as 9.31%. With `CCOc1ccc(S(=O)(=O)NCCC(=O)OCC(=O)Nc2cc(C)on2)cc1` the “hERG current change (%, negative = inhibition) at 1uM” value was -32.8%. For `CSCCC(NC(=O)c1ccc(Cl)cc1Cl)C(=O)NCc1ccncc1` (centres unmarked), the “hERG current change (%, negative = inhibition) at 1uM” value was 4.15%. For `COc1ccc(S(=O)(=O)N(C)c2ccc(C(=O)N3CCCCC3)cc2)cc1`, the “hERG current change (%, negative = inhibition) at 1uM” value was 4.64%. `Cc1cc(N2Cc3ccccc3C2)ccc1C=O` was tested, and the “hERG current change (%, negative = inhibition) at 1uM” value was 7.62%. For `Cc1ccccc1NC(=O)Cn1nnc(S(=O)(=O)c2ccc(C(C)(C)C)cc2)c1N`, the “hERG current change (%, negative = inhibition) at 1uM” value was 10.5%. For `Cc1ccc(NC(=O)CCCN2C(=O)NC(C)(C)C2=O)cc1`, the “hERG current change (%, negative = inhibition) at 1uM” value was 12.7%. In the case of `COCCCN=Cc1c(-c2ccccc2)[nH]n(-c2nc3ccccc3s2)c1=O`, the “hERG current change (%, negative = inhibition) at 1uM” value is reported as -55.9%. `CSc1nc(O)c(/C=C2\C=Nc3ccccc32)[nH]1` was tested, and the “hERG current change (%, negative = inhibition) at 1uM” value was 13%. `CCCOc1ccc(/C(O)=C2/C(=O)C(=O)N(CCCOC)C2c2cccnc2)cc1` (centres unmarked) was tested, and the “hERG current change (%, negative = inhibition) at 1uM” value was -0.232%. With `Nc1ccc(/C=C/c2ccc3ncccc3c2)cc1` the “hERG current change (%, negative = inhibition) at 1uM” value was 22.8%. For `CCOc1cc(/C=N/NC(=O)c2ccc(N(C)S(=O)(=O)c3ccccc3)cc2)ccc1OC`, the “hERG current change (%, negative = inhibition) at 1uM” value was 2.27%. `CCCC(=O)Nc1cccc2c1CCCC2` was tested, and the “hERG current change (%, negative = inhibition) at 1uM” value was 17.7%. With `COc1ccc(OCCN2CCN(C(=O)c3ccc(OC)cc3)CC2)cc1` the “hERG current change (%, negative = inhibition) at 1uM” value was -90.6%. For `O=C(Nc1ccccc1N1CCCC1)c1ccc([N+](=O)[O-])o1`, the “hERG current change (%, negative = inhibition) at 1uM” value was 1.03%. With `CN(C)CCSC1c2ccccc2CSc2ccccc21.Cl` (centres unmarked) the “hERG current change (%, negative = inhibition) at 1uM” value was 8.57%. With `CC(=O)c1cccc(NS(=O)(=O)c2ccc(-c3cnc(C4CC4)o3)cc2)c1` the “hERG current change (%, negative = inhibition) at 1uM” value was 11.5%. In the case of `COc1ccccc1C(=O)NC(=S)Nc1ccc(NC(=O)c2cccs2)cc1`, the “hERG current change (%, negative = inhibition) at 1uM” value is reported as 6.17%. `Cc1ccc(S(=O)(=O)N(CC(=O)NCCSc2ccccn2)c2ccc(C)c(C)c2)cc1` was tested, and the “hERG current change (%, negative = inhibition) at 1uM” value was 1%. `Nc1c(N(Cc2ccco2)C(=O)c2cccc(Cl)c2)c(=O)[nH]c(=O)n1Cc1ccccc1` was tested, and the “hERG current change (%, negative = inhibition) at 1uM” value was 10.1%. For `CC(=O)c1cc2cc(O)ccc2o1`, the “hERG current change (%, negative = inhibition) at 1uM” value was 3.09%. For `O=C(Cc1ccccc1)N1CCN(Cc2ccc([N+](=O)[O-])cc2)CC1`, the “hERG current change (%, negative = inhibition) at 1uM” value was -17.4%. `CC(C(=O)OCC(=O)c1ccc([N+](=O)[O-])cc1)N1C(=O)C2C3C=CC(C3)C2C1=O` (centres unmarked) was tested, and the “hERG current change (%, negative = inhibition) at 1uM” value was 12.5%. `O=C(Nc1ncccn1)C1CCCN1S(=O)(=O)c1ccc(Cl)c(Cl)c1` (centres unmarked) was tested, and the “hERG current change (%, negative = inhibition) at 1uM” value was 11.2%. For `COc1ccc(C2NC(=O)C(C#N)=C(S)N2c2ccc(C)cc2)cc1OC` (centres unmarked), the “hERG current change (%, negative = inhibition) at 1uM” value was 15.5%. For `COc1ccc(Cc2nnc(NS(=O)(=O)c3ccc([N+](=O)[O-])cc3)s2)cc1`, the “hERG current change (%, negative = inhibition) at 1uM” value was 9.91%. In the case of `COC(=O)c1cccc(NC(=O)Cc2ccccc2[N+](=O)[O-])c1C`, the “hERG current change (%, negative = inhibition) at 1uM” value is reported as -8.27%. With `CCC(C(=O)NCc1ccc(F)cc1)N(CCc1ccccc1)C(=O)c1snc(C(N)=O)c1N` (centres unmarked) the “hERG current change (%, negative = inhibition) at 1uM” value was 4.48%. For `COc1ccc(CCNS(=O)(=O)c2ccc([N+](=O)[O-])cc2)cc1OC`, the “hERG current change (%, negative = inhibition) at 1uM” value was 11%. With `CN1CCN(S(=O)(=O)c2ccc(N3CCN(C(=O)c4ccccc4)CC3)nc2)CC1` the “hERG current change (%, negative = inhibition) at 1uM” value was 18.7%. In the case of `CC(=O)Nc1nc(C=C(Cl)Cl)cs1`, the “hERG current change (%, negative = inhibition) at 1uM” value is reported as 5.26%.

From PMC4336329 (PLoS ONE, 2015)
